Measured values taken from the supplement of paper PMC12217912.
Some of the results follow. Sequences were assembled here from the parent chain. Inactive controls read about 0.05.

B1: TEV protease; numbered along this chain (parent)
chain: MGESLFKGPRDYNPISSSICHLTNESDGHTTSLYGIGFGPFIITNKHLFRRNNGTLVVQSLHGVFKVKDTTTLQQHLVDGRDMIIIRMPKDFPPFPQKLKFREPQREERICLVTTNFQTKSMSSMVSDTSCTFPSGDGIFWKHWIQTKDGQCGSPLVSTRDGFIVGIHSASNFTNTNNYFTSVPKNFMELLTNQEAQQWVSGWRLNADSVLWGGHKVFMVKPEEPFQPVKEATQL

Variants of: B1
Assay: raw area under fraction-flipped curve 0-4 h after induction (AUC4h, not background-subtracted), DNA-recorder readout of cleavage of the substrate (dimensionless); higher = more cleavage of the substrate by the protease variant
Conditions: temperature: 34 °C; time window: 0-4 h after rhamnose induction
Protocol: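 In vivo DNA recorder in E. coli TOP10(DE3) ΔrhaA at 34 °C. Each TEVp single-site mutant (parent TEVp 0) is paired with a single-site variant of the 7-mer TEVs (canonical ENLYFQ|S). The substrate sits between flexible linkers in a Bxb1-sfGFP-TEVs-SsrA fusion, so cleavage stabilises Bxb1 and speeds flipping of a recombination array, read by NGS. The value is the raw area under the fraction-flipped curve over 0-4 h after rhamnose induction (AUC4h), with ≥20 reads per time point. It is not background-subtracted; inactive controls average about 0.047.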
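Further: Bxb1 expression induced with 0.2% (w/v) L-rhamnose at OD600 near 0.5, cultures sampled hourly, flipped fraction per protease–substrate barcode pair counted by paired-end Illumina sequencing.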

Row | Variant | area with substrate EALYFQS | area with substrate ECLYFQS | area with substrate EDLYFQS | area with substrate EELYFQS | area with substrate EFLYFQS | area with substrate EILYFQS | area with substrate EKLYFQS | area with substrate ELLYFQS | area with substrate EMLYFQS | area with substrate EPLYFQS | area with substrate EQLYFQS | area with substrate ESLYFQS | area with substrate EVLYFQS | area with substrate EWLYFQS | area with substrate EYLYFQS | area with substrate EGLYFQS | area with substrate EHLYFQS | area with substrate ERLYFQS | area with substrate ETLYFQS
1 | I42H | 0.0418 | 0.0469 | 0.0321 | 0.0376 | 0.0412 | 0.0381 | 0.0572 | 0.0483 | 0.0412 | 0.0322 | 0.0506 | 0.0537 | 0.0606 | 0.0377 | 0.0504 | – | – | – | –
2 | G63D | 0.0943 | 0.0861 | 0.109 | 0.117 | – | – | 0.0906 | 0.0787 | 0.0889 | 0.125 | 0.0801 | 0.102 | 0.0762 | 0.0578 | – | 0.0744 | 0.112 | 0.0901 | –
3 | V67M | 0.0474 | 0.103 | – | – | – | 0.104 | – | 0.083 | – | 0.0971 | 0.0709 | – | 0.0834 | – | 0.0859 | 0.0952 | – | 0.0742 | –
4 | R51L | 0.103 | 0.0958 | – | – | 0.0894 | 0.0769 | – | – | 0.128 | 0.103 | – | 0.0964 | 0.102 | – | 0.0952 | – | – | 0.094 | 0.17
5 | L61K | 0.12 | 0.102 | 0.126 | 0.121 | – | 0.104 | – | 0.102 | – | 0.121 | – | 0.11 | 0.0918 | – | – | 0.0995 | – | 0.0906 | –
6 | T70D | 0.0708 | 0.0588 | 0.0953 | 0.0828 | 0.084 | 0.0801 | 0.102 | – | – | – | – | 0.0686 | 0.0308 | 0.0776 | – | 0.0465 | – | 0.0944 | 0.072
7 | T70W | 0.0651 | 0.0645 | 0.0766 | 0.0607 | 0.0544 | 0.062 | 0.0794 | 0.0652 | 0.0572 | 0.0678 | 0.0677 | 0.0695 | 0.0884 | 0.0669 | – | 0.0627 | 0.0675 | 0.0562 | 0.0778
8 | T70A | 0.104 | 0.073 | – | 0.103 | – | – | 0.0786 | – | – | – | – | 0.0749 | 0.0745 | – | 0.0859 | 0.0409 | – | 0.0546 | 0.0752
9 | I43C | 0.108 | 0.0865 | 0.108 | 0.0948 | – | 0.081 | 0.0851 | 0.0772 | 0.0837 | 0.102 | 0.0984 | 0.0829 | 0.0711 | 0.0793 | 0.0488 | 0.087 | 0.101 | – | 0.108
10 | V58K | 0.0721 | 0.0463 | 0.0574 | – | – | 0.0399 | – | – | 0.0512 | 0.0604 | – | – | 0.0465 | 0.0553 | – | – | 0.0124 | 0.0569 | –
11 | Y34F | 0.0922 | 0.103 | – | 0.121 | 0.12 | 0.108 | – | 0.0902 | 0.106 | 0.116 | – | 0.0598 | 0.0689 | – | – | 0.0814 | – | 0.0978 | 0.122
12 | N45A | 0.0884 | 0.0812 | 0.102 | 0.0805 | 0.0942 | 0.0735 | – | 0.0653 | – | – | 0.109 | 0.0836 | 0.0712 | 0.0627 | 0.0829 | 0.0744 | 0.0592 | 0.0806 | 0.0735
13 | N45K | 0.0549 | 0.0546 | 0.0629 | 0.0535 | 0.0718 | 0.0495 | 0.0645 | – | 0.0652 | – | 0.0556 | 0.0608 | 0.0597 | – | – | 0.0505 | 0.0673 | 0.0504 | –
